Results on 109 sequences are retold here after the supplement of paper PMC4166925.

± gives the standard deviation of the averaged measurements. Whole data set: some 33,000 sequences, median “E-score (dimensionless, -0.5 to 0.5)” near -0.046, cut for the highest 2% near 0.36. The list shows a part of the results.
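Note: protein at 200 nM in PBS on universal double-stranded arrays.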

For this test, the system named is T1, SpTbr T-box DNA-binding domain (GST fusion).
T1 sequence: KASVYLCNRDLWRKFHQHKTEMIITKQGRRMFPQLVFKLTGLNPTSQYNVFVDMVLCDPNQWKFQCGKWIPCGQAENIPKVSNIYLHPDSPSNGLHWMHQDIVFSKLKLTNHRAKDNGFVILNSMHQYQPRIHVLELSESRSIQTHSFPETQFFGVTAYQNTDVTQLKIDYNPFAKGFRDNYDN
As to the kind of experiment: PBM E-score of 8-mer (E-score (dimensionless, -0.5 to 0.5)); Tbr is Tbrain of the sea star Patiria miniata (Pm) or the sea urchin Strongylocentrotus purpuratus (Sp); higher = stronger binding preference; most listed sequences are background and not binding sites. Particulars: the construct has about 5 more residues each side. How it is done:
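Universal protein-binding microarray (Agilent AMADID 016060, 60-bp probes with a 35-bp variable region) incubated with 200 nM GST-fused Strongylocentrotus purpuratus Tbr T-box DNA-binding domain (residues 362-554) in PBS pH 7.5. Scored for every ungapped 8-mer (given with its reverse complement) as E-score (range -0.5 to 0.5; >0.45 counts as bound) and Z-score of median probe intensity. Two replicate arrays (datasets 1 and 2).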
With GACGAGCC, the “PBM E-score of 8-mer” value was -0.0731 ± 0.024. Take CGGCCACA: the “PBM E-score of 8-mer” value was determined as 0.131 ± 0.1. With GCATGCTA, the “PBM E-score of 8-mer” value is 0.00793 ± 0.094. With ACGACCCA, the “PBM E-score of 8-mer” value is -0.00396 ± 0.0098. For ACATCTCT the value was 0.0448 ± 0.034; for AACATTTG, -0.0214 ± 0.0034. For CTAGCTTC the value was -0.0765 ± 0.0019.

Consider AGTCGTCA, for which the “PBM E-score of 8-mer” value came out at 0.27463 ± 0.00015. For GGCAAAAA, the “PBM E-score of 8-mer” value was found to be 0.0671 ± 0.028. AAAACGCG: the “PBM E-score of 8-mer” value came to 0.0985 ± 0.0096. For TGGCCAAA the value was -0.096 ± 0.031; for ACCACCTC, 0.343 ± 0.046. In the case of CCCTACAA, the “PBM E-score of 8-mer” value is -0.069 ± 0.016. For GGAGGGTA, the “PBM E-score of 8-mer” value was -0.0485 ± 0.045. CGCCAGTA: the “PBM E-score of 8-mer” value stood at 0.0702 ± 0.01. For the sequence GATCGTAC, the “PBM E-score of 8-mer” value is -0.052 ± 0.014. In the case of AAGGTCCG, the “PBM E-score of 8-mer” value is -0.181 ± 0.018.

CAGTTTCC: the “PBM E-score of 8-mer” value was -0.0764 ± 0.021. GATTCGCC: the “PBM E-score of 8-mer” value was -0.0461 ± 0.029. For the sequence CGGCATCC, the “PBM E-score of 8-mer” value is -0.155 ± 0.023. Take AAGCAGGT: the “PBM E-score of 8-mer” value was 0.102 ± 0.0054.

As to ACCGGAGC, the “PBM E-score of 8-mer” value was -0.182 ± 0.055. As for CGAATACG, the “PBM E-score of 8-mer” value turned out to be 0.0203 ± 0.00074. As for CAACCTCG, the “PBM E-score of 8-mer” value is 0.0554 ± 0.11.

In the case of CTGTAAAC, the “PBM E-score of 8-mer” value worked out at 0.132 ± 0.0059.

As for TAGAGGGA, the “PBM E-score of 8-mer” value is -0.0885 ± 0.015.

As for CGTATACC, the “PBM E-score of 8-mer” value was -0.0262 ± 0.079.

Take CTTCCCTC: the “PBM E-score of 8-mer” value is -0.193 ± 0.094.

For ACCTCCCT, the “PBM E-score of 8-mer” value was 0.00833 ± 0.034. As for ACGCCACA, the “PBM E-score of 8-mer” value is 0.222 ± 0.036. As for CCAATCTA, the “PBM E-score of 8-mer” value was -0.187 ± 0.03. In the case of AATCCCGC, the “PBM E-score of 8-mer” value was -0.146 ± 0.015. As for AGTAAGTC, the “PBM E-score of 8-mer” value is -0.229 ± 0.019. For GCCTGACA the value was 0.177 ± 0.022; for CTATCTAC, -0.0711 ± 0.021; for TCTGTGCA, -0.112 ± 0.0015. In the case of TACCAACA, the “PBM E-score of 8-mer” value came out at 0.129 ± 0.0035. For TGGAGAAA, the “PBM E-score of 8-mer” value was -0.013 ± 0.077. CCTCAGCC: the “PBM E-score of 8-mer” value was -0.0938 ± 0.007.

In the case of GGTCAACC, the “PBM E-score of 8-mer” value was -0.138 ± 0.0015. As to GAGAGCAA, the “PBM E-score of 8-mer” value amounted to 0.0426 ± 0.034.

Consider AGCTTTAA, for which the “PBM E-score of 8-mer” value was -0.261 ± 0.057. For GAATCGTA, the “PBM E-score of 8-mer” value was -0.0254 ± 0.00061. In the case of AGATTACA, the “PBM E-score of 8-mer” value came out at 0.0164 ± 0.026. Turning to GCTAAACC, the “PBM E-score of 8-mer” value is 0.0155 ± 0.053. Turning to ACTAAGAC, the “PBM E-score of 8-mer” value amounted to 0.065 ± 0.027. In the case of GTTCGCGA, the “PBM E-score of 8-mer” value was 0.389 ± 0.0052. Regarding GAGCCGCC, the “PBM E-score of 8-mer” value was -0.069 ± 0.08.

Take CTGTCCCA: the “PBM E-score of 8-mer” value turned out to be 0.0173 ± 0.11. In the case of CTCGTCAA it was 0.201 ± 0.0083.

AGTTATAC: the “PBM E-score of 8-mer” value was 0.104 ± 0.067. Regarding ACCGAGAC, the “PBM E-score of 8-mer” value is -0.075 ± 0.046. In the case of GCATGTCA, the “PBM E-score of 8-mer” value was -0.0623 ± 0.024. Regarding CGTCGAAA, the “PBM E-score of 8-mer” value was -0.154 ± 0.044.

Consider GCTTCAAC, for which the “PBM E-score of 8-mer” value is -0.107 ± 0.059.

On to GGCCGAAC, for which the “PBM E-score of 8-mer” value is -0.234 ± 0.054. As for CCCTCCGG, the “PBM E-score of 8-mer” value stood at 0.0132 ± 0.028.

Take CCAAAGAG: the “PBM E-score of 8-mer” value is 0.0924 ± 0.018. For TCGTATAA the value was -0.166 ± 0.038; for AAATAACC, -0.00923 ± 0.0017.

As to AATTTTGG, the “PBM E-score of 8-mer” value was -0.00148 ± 0.064. On to GAGGTGAA, for which the “PBM E-score of 8-mer” value is 0.198 ± 0.0028. For the sequence CAACCGTG, the “PBM E-score of 8-mer” value is 0.25 ± 0.011. In the case of CCCACATC it was 0.224 ± 0.064; in that of ACGAGTAC, 0.00244 ± 0.049. As to AGAGGAGG, the “PBM E-score of 8-mer” value was determined as 0.146 ± 0.035. On to ATACGCCA, for which the “PBM E-score of 8-mer” value came to 0.0803 ± 0.057. With CACGCCCA, the “PBM E-score of 8-mer” value came out at 0.252 ± 0.083. In the case of AAGGAATA it was -0.0518 ± 0.013; in that of CGGCGGGA, -0.0057 ± 0.021; in that of ACCATGAT, 0.11 ± 0.035. Regarding CTAGTCAA, the “PBM E-score of 8-mer” value was -0.0107 ± 0.02.

For CGGCCAAG, the “PBM E-score of 8-mer” value was -0.0792 ± 0.044. GGGTAGAC: the “PBM E-score of 8-mer” value is -0.19 ± 0.027. In the case of TTGGCAAA, the “PBM E-score of 8-mer” value came to 0.103 ± 0.11. On to CTCTTGCA, for which the “PBM E-score of 8-mer” value is -0.0858 ± 0.0045. For TAATGGCA the value was 0.102 ± 0.061; for ATCTCACC, 0.422 ± 0.0058. Consider ACCTTGAC, for which the “PBM E-score of 8-mer” value worked out at 0.255 ± 0.067. In the case of ACATCCTC it was 0.094 ± 0.0043. As to CGCTCGCC, the “PBM E-score of 8-mer” value amounted to 0.0162 ± 0.1. In the case of CTCCGCGA it was 0.204 ± 0.03. For AGTCTCCA the value was -0.238 ± 0.062; for GCTCAAGA, -0.106 ± 0.025. CTGTATTC: the “PBM E-score of 8-mer” value is -0.0355 ± 0.039. GGTGTGTA: the “PBM E-score of 8-mer” value stood at 0.356 ± 0.008. For CCGAATCC the value was -0.198 ± 0.088; for CCGATGAG, -0.233 ± 0.028. With CCATTGCC, the “PBM E-score of 8-mer” value is -0.101 ± 0.038.

For the sequence ACGCTAAT, the “PBM E-score of 8-mer” value is 0.1008 ± 0.001.

Regarding CAGGACGG, the “PBM E-score of 8-mer” value was -0.228 ± 0.041.

Turning to ATCTCAAT, the “PBM E-score of 8-mer” value was -0.0549 ± 0.081. ACAGTGCT: the “PBM E-score of 8-mer” value came out at 0.0176 ± 0.048. ATTTAAAC: the “PBM E-score of 8-mer” value is -0.138 ± 0.03. Turning to AGTCACTG, the “PBM E-score of 8-mer” value is -0.103 ± 0.15.

For the sequence CTCCTTAA, the “PBM E-score of 8-mer” value was -0.0575 ± 0.006. For the sequence GGCTGGAC, the “PBM E-score of 8-mer” value is -0.247 ± 0.031. With ACGAACTC, the “PBM E-score of 8-mer” value came out at 0.0501 ± 0.029. In the case of ATATGTCG, the “PBM E-score of 8-mer” value was determined as 0.139 ± 0.047. With TAACCTTA, the “PBM E-score of 8-mer” value is -0.0423 ± 0.045. For AATATACA the value was -0.1667 ± 0.00086; for CGTGTTCA, 0.113 ± 0.067.

For the sequence GGTGGTGA, the “PBM E-score of 8-mer” value is 0.249 ± 0.011. In the case of CACTCACC it was 0.312 ± 0.019; in that of AAGGCTCT, -0.246 ± 0.05. For the sequence AGTCCCCC, the “PBM E-score of 8-mer” value is -0.114 ± 0.047.

Regarding AGAAGAAT, the “PBM E-score of 8-mer” value is -0.124 ± 0.011. For ATGTCCCC the value was -0.136 ± 0.0072; for ATTACTTC, -0.144 ± 0.045.
